Source: the supplement of paper PMC10369915
The list shows a part of the results. Rule as the data show it: active = 3.2 or more and inactive = the rest. The signal is at background level for most entries.

Assays:
Assay in all cases: enrichment score (SH2-bound / input frequency) (ratio); bacterial display of known human phosphotyrosine sites (pTyr-Var adds point mutants) read by sequencing; higher = stronger binding; tyrosines were phosphorylated by kinases first
Conditions in all cases: peptide library: pTyr-Var
[1] = biological target: SHP2 C-SH2 domain E139D
[2] = biological target: SHP2 C-SH2 domain wild-type
[3] = biological target: SHP2 N-SH2 domain L43F
[4] = biological target: SHP2 N-SH2 domain T42A
[5] = biological target: SHP2 N-SH2 domain T52S
[6] = biological target: SHP2 N-SH2 domain wild-type
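Also: displayed peptides selected on beads carrying the immobilized SH2 domain, with library peptides lacking any tyrosine serving as negative controls.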

Row | Binder | enrichment score [1] | enrichment score [2] | enrichment score [3] | enrichment score [4] | enrichment score [5] | enrichment score [6]
1 | YSPCDYQPCLA [TNS1_Y798_Y796C] | inactive: 2.61 | inactive: 2.51 | inactive: 2.98 | inactive: 2.25 | inactive: 2.6 | inactive: 2.07
2 | FVTCTYSPALN [TP53_Y126_S121F] | inactive: 0.817 | inactive: 1.04 | inactive: 0.787 | inactive: 0.5 | inactive: 0.66 | inactive: 1.04
3 | RSFSPCDFQPC [TNS1_Y796_Y796C_YF] | inactive: 1.68 | inactive: 1.59 | inactive: 1.73 | inactive: 1.77 | inactive: 1.84 | inactive: 1.71
4 | SGGMDYGMVGG [TNRC6B_Y1382] | inactive: 0.706 | inactive: 0.658 | inactive: 0.814 | inactive: 0.591 | inactive: 0.634 | inactive: 0.688
5 | SVTCTYSRALN [TP53_Y126_P128R] | inactive: 0.74 | inactive: 1.22 | inactive: 0.755 | inactive: 0.737 | inactive: 0.718 | inactive: 1.26
6 | LINSVYGCSRQ [TMPRSS6_Y290_T287N] | inactive: 0.921 | inactive: 0.754 | inactive: 0.586 | inactive: 0.665 | inactive: 1.04 | inactive: 0.829
7 | PPPPAYDDVAQ [TNK2_Y635] | inactive: 0.507 | inactive: 0.47 | inactive: 0.54 | inactive: 0.598 | inactive: 0.53 | inactive: 0.762
8 | TFGQVYKGRHV [TNIK_Y40_YF] | inactive: 0.932 | inactive: 0.976 | inactive: 0.949 | inactive: 0.83 | inactive: 0.835 | inactive: 1.1
9 | YSPYDYQPCLA [TNS1_Y798] | inactive: 0.864 | inactive: 0.984 | inactive: 0.757 | inactive: 0.72 | inactive: 0.918 | inactive: 1.06
10 | SVTCTYSPTLN [TP53_Y126_A129T] | inactive: 1.03 | inactive: 1.36 | inactive: 1.21 | inactive: 1.17 | inactive: 0.955 | inactive: 1.82
11 | GARGRYIMGGP [TNK1_Y277_V278I] | inactive: 0.476 | inactive: 0.441 | inactive: 0.519 | inactive: 0.466 | inactive: 0.579 | inactive: 0.604
12 | SVTCTYSPALY [TP53_Y126_N131Y] | inactive: 0.829 | inactive: 1.22 | inactive: 0.991 | inactive: 0.777 | inactive: 0.806 | inactive: 1.36
13 | SVTSTYSPALN [TP53_Y126_C124S] | inactive: 0.6 | inactive: 0.446 | inactive: 0.594 | inactive: 0.572 | inactive: 0.681 | inactive: 0.758
14 | SVTCTYSPGLN [TP53_Y126_A129G] | inactive: 1.01 | inactive: 1.76 | inactive: 1.53 | inactive: 1.14 | inactive: 1.05 | inactive: 1.95
15 | RSYSPYDYQPC [TNS1_Y796] | inactive: 0.647 | inactive: 0.6 | inactive: 0.541 | inactive: 0.557 | inactive: 0.498 | inactive: 0.634
16 | LWQSIYNLEAE [TNNT2_Y251] | inactive: 2.03 | inactive: 2.5 | inactive: 2.51 | inactive: 2.4 | inactive: 2.5 | inactive: 2.67
17 | SVTCTYTPALN [TP53_Y126_S127T] | inactive: 0.506 | inactive: 1.03 | inactive: 0.673 | inactive: 0.723 | inactive: 0.635 | inactive: 1.2
18 | SVTCTYSPAPN [TP53_Y126_L130P] | inactive: 0.945 | inactive: 1.06 | inactive: 0.911 | inactive: 0.74 | inactive: 0.779 | inactive: 1.44
19 | SVICTYSPALN [TP53_Y126_T123I] | inactive: 0.682 | inactive: 1.07 | inactive: 0.848 | inactive: 0.581 | inactive: 0.749 | inactive: 0.922

Row | Binder | enrichment score [1] | enrichment score [2] | enrichment score [3] | enrichment score [4] | enrichment score [5] | enrichment score [6]
20 | SVTCTYSPALT [TP53_Y126_N131T] | inactive: 1.21 | inactive: 1.57 | inactive: 1.13 | inactive: 1 | inactive: 0.709 | inactive: 1.95
21 | FFRRHYPLTTL [TNS4_Y644] | inactive: 0.353 | inactive: 0.261 | inactive: 0.32 | inactive: 0.382 | inactive: 0.293 | inactive: 0.328
22 | SVTCTYSPALH [TP53_Y126_N131H] | inactive: 0.803 | inactive: 1.38 | inactive: 0.837 | inactive: 0.741 | inactive: 0.663 | inactive: 1.38
23 | QSAGQYSSQGL [TNNI3K_Y788] | inactive: 0.613 | inactive: 0.671 | inactive: 0.614 | inactive: 0.42 | inactive: 0.506 | inactive: 0.634
24 | PPGRSYSPCDY [TNS1_Y793_Y796C] | inactive: 0.972 | inactive: 0.81 | inactive: 0.608 | inactive: 0.783 | inactive: 0.785 | inactive: 0.722
25 | TGDFGYRAPGF [TNS2_Y668_YF] | inactive: 0.626 | inactive: 0.6 | inactive: 0.575 | inactive: 0.45 | inactive: 0.629 | inactive: 0.778
26 | FSPFDYQPCLA [TNS1_Y798_YF] | inactive: 0.992 | inactive: 0.889 | inactive: 0.805 | inactive: 0.873 | inactive: 0.817 | inactive: 0.901
27 | YRAPGYREVVI [TNS2_Y673] | inactive: 0.982 | inactive: 0.746 | inactive: 1.06 | inactive: 0.955 | inactive: 1.28 | inactive: 0.819
28 | FRTPGYREVVI [TNS2_Y673_A670T_YF] | inactive: 1.23 | inactive: 1.08 | inactive: 1.57 | inactive: 1.4 | inactive: 1.92 | inactive: 1.11
29 | RSYSPCDYQPC [TNS1_Y796_Y796C] | inactive: 2.5 | inactive: 2.7 | inactive: 2.67 | inactive: 2.34 | inactive: 2.78 | inactive: 2.53
30 | SVTCTYCPALN [TP53_Y126_S127C] | active: 3.26 | active: 3.34 | active: 3.39 | inactive: 2.43 | inactive: 3.07 | inactive: 2.53
31 | SVTCTYSLALN [TP53_Y126_P128L] | inactive: 0.979 | inactive: 1.14 | inactive: 0.914 | inactive: 0.628 | inactive: 0.824 | inactive: 1.3
32 | SVTCTYFPALN [TP53_Y126_S127F] | inactive: 0.897 | inactive: 1.44 | inactive: 1.19 | inactive: 0.808 | inactive: 0.896 | inactive: 1.52
33 | TYGQVYKGPHV [TNIK_Y40_R43P] | inactive: 0.929 | inactive: 0.851 | inactive: 0.73 | inactive: 0.745 | inactive: 0.776 | inactive: 0.803
34 | LWQTIYNLEAE [TNNT2_Y251_S249T] | inactive: 1.67 | inactive: 1.63 | inactive: 1.67 | inactive: 1.82 | inactive: 1.75 | inactive: 1.58
35 | SVTCTYSPALN [TP53_Y126] | inactive: 0.858 | inactive: 1.55 | inactive: 1.1 | inactive: 0.993 | inactive: 0.906 | inactive: 1.54
36 | GGDGSYVSVPL [TNNI3K_Y425_S430L] | inactive: 0.573 | inactive: 0.609 | inactive: 0.505 | inactive: 0.469 | inactive: 0.63 | inactive: 0.727
37 | TGDFGYRAPGY [TNS2_Y668] | inactive: 0.416 | inactive: 0.515 | inactive: 0.617 | inactive: 0.46 | inactive: 0.499 | inactive: 0.633
